13 molecules from the supplement of paper PMC4604168 (melanoma cell lines) can be followed below.

The list shows a part of the results. Many values rest on one well or one pass, so single values are uncertain.
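Also: cells treated in 1,536-well plates, then fixed and DAPI-stained, with nuclei counted from automated high-throughput microscope images.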

This experiment deals with A2058. Put plainly: cell count relative to DMSO control; melanoma cells; higher = more viable cells. To be noted: library dose: standard library concentration; 72 h.
`Cc1ccc(Nc2nccc(N(C)c3ccc4c(C)n(C)nc4c3)n2)cc1S(N)(=O)=O` [Pazopanib] + O=C(O)c1ccc2c(c1)nc(Nc1cccc(Cl)c1)c1ccncc12 [CX4945] (first compound 2 µM, partner dose 2 µM): the cell count is 82.4%.
With `CC1(C)CCC(c2ccc(Cl)cc2)=C(CN2CCN(c3ccc(C(=O)NS(=O)(=O)c4ccc(N[C@H](CCN5CCOCC5)CSc5ccccc5)c(S(=O)(=O)C(F)(F)F)c4)cc3)CC2)C1` + Nc1cccc2c1CN(C1CCC(=O)NC1=O)C2=O [lenalidomide] (first compound 2 µM, partner dose 5 µM) the figure was 82.9%; with `O=C(/C=C/c1cccnc1)NCCCCC1CCN(C(=O)c2ccccc2)CC1` + CCN(CC)CCNC(=O)c1c(C)[nH]c(/C=C2\C(=O)Nc3ccc(F)cc32)c1C [sunitinib] (first compound 0.05 µM, partner dose 2 µM), 69.6%.
Molecule `Cc1ccc(Nc2nccc(N(C)c3ccc4c(C)n(C)nc4c3)n2)cc1S(N)(=O)=O` [Pazopanib] + CO[C@H]1C[C@@H]2CC[C@@H](C)[C@@](O)(O2)C(=O)C(=O)N2CCCC[C@H]2C(=O)O[C@H]([C@H](C)C[C@@H]2CC[C@@H](OCCO)[C@H](OC)C2)CC(=O)[C@H](C)/C=C(\C)[C@@H](O)[C@@H](OC)C(=O)[C@H](C)C[C@H](C)/C=C/C=C/C=C/1C [everolimus] (first compound 2 µM, partner dose 0.1 µM) showed a cell count of 60.9%.
With `Cc1ccc(Nc2nccc(N(C)c3ccc4c(C)n(C)nc4c3)n2)cc1S(N)(=O)=O` [Pazopanib] + OCc1c[nH]c2ccccc12 [Indole-3-carbinol] (first compound 2 µM, partner dose 4 µM) the figure was 87.9%.
Regarding `O=C(/C=C/c1cccnc1)NCCCCC1CCN(C(=O)c2ccccc2)CC1` + CN(C)S(=O)(=O)c1ccc2c(c1)/C(=C/c1cc3c([nH]1)CCCC3)C(=O)N2 [SU6656] (first compound 0.05 µM, partner dose 2 µM), the cell count was determined as 122%.
`O=C(/C=C/c1cccnc1)NCCCCC1CCN(C(=O)c2ccccc2)CC1` + CN(c1ncccc1CNc1nc(Nc2ccc3c(c2)CC(=O)N3)ncc1C(F)(F)F)S(C)(=O)=O [PF562271] (first compound 0.05 µM, partner dose 0.4 µM) yielded a cell count of 68.3%.
Regarding `O=C(/C=C/c1cccnc1)NCCCCC1CCN(C(=O)c2ccccc2)CC1` + CN(NC(=O)CC(=O)NN(C)C(=S)c1ccccc1)C(=S)c1ccccc1 [STA4783] (first compound 0.05 µM, partner dose 0.03 µM), the cell count turned out to be 6.42%.
For `O=C(/C=C/c1cccnc1)NCCCCC1CCN(C(=O)c2ccccc2)CC1` + Cn1c(=O)n(-c2ccc(C(C)(C)C#N)cc2)c2c3cc(-c4cnc5ccccc5c4)ccc3ncc21 [NVP-BEZ235] (first compound 0.05 µM, partner dose 0.02 µM) the value was 44%.
For `CC1(C)CCC(c2ccc(Cl)cc2)=C(CN2CCN(c3ccc(C(=O)NS(=O)(=O)c4ccc(N[C@H](CCN5CCOCC5)CSc5ccccc5)c(S(=O)(=O)C(F)(F)F)c4)cc3)CC2)C1` + CO[C@H]1C[C@@H]2CC[C@@H](C)[C@@](O)(O2)C(=O)C(=O)N2CCCC[C@H]2C(=O)O[C@H]([C@H](C)C[C@@H]2CC[C@@H](OCCO)[C@H](OC)C2)CC(=O)[C@H](C)/C=C(\C)[C@@H](O)[C@@H](OC)C(=O)[C@H](C)C[C@H](C)/C=C/C=C/C=C/1C [everolimus] (first compound 2 µM, partner dose 0.1 µM) the value was 56.6%; for `O=C(/C=C/c1cccnc1)NCCCCC1CCN(C(=O)c2ccccc2)CC1` + OCc1c[nH]c2ccccc12 [Indole-3-carbinol] (first compound 0.05 µM, partner dose 4 µM), 123%.
With `CC1(C)CCC(c2ccc(Cl)cc2)=C(CN2CCN(c3ccc(C(=O)NS(=O)(=O)c4ccc(N[C@H](CCN5CCOCC5)CSc5ccccc5)c(S(=O)(=O)C(F)(F)F)c4)cc3)CC2)C1` + COc1ccc2c(c1)CCC1C2CCC2(C)C(NCCCCCCN3C(=O)C=CC3=O)CCC12 [U73122] (first compound 2 µM, partner dose 2 µM) the figure was 48.8%; with `Cc1ccc(Nc2nccc(N(C)c3ccc4c(C)n(C)nc4c3)n2)cc1S(N)(=O)=O` [Pazopanib] + COc1cc2c(Oc3ccc4[nH]c(C)cc4c3F)ncnc2cc1OCCCN1CCCC1 [cediranib] (first compound 2 µM, partner dose 2 µM), 88.8%.
